# Results: PubChem BioAssay AID445 (National Center for Advancing Translational Sciences (NCATS), 2006)
# Hit rate of the full screen: of about 110,000 compounds, about 40 (0.04%) were called active. The inconclusive results got no clear call from the source; some entries with a clear call stand among them for comparison. Calls follow the shape of the dose curve; as a rule, active = well fitted curve in the direction sought with a large enough effect in the signal ratio (not every such curve was filed as active); inconclusive = small, poorly fitted or top-dose-only effect, or a change in a side signal; inactive = flat fitted curve, though single readings scatter; the % refers to the signal ratio. Where the call is inconclusive, the potency comes from a doubtful curve fit.
# Assay: IkB Signaling;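 as to IkBa stabilization activation: 0% = basal untreated cells and 100% = reference inhibitor full response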
# Settings: ABC-DLBCL IkBa-CBG/CBR dual luciferase ratio (green luciferase fused to IkBa over red control in OCI-Ly3 lymphoma cells), 4 h; IkBa stabilization activation: at 57.1 µM (top of the series), scaled: untreated 0%, proteasome inhibitor 100% unless noted
# Method in brief: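 Luminescence ratio of IκBα-fused green versus native red beetle luciferase in OCI-Ly3 cells, 4 h post-doxycycline with compound; red signal alone, scaled from basal (0%) to zero light (-100%), flagged nonspecific or cytotoxic effects.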
# Potency is read from the fitted curve at half-maximal effect.
SMILES,IkBa stabilization activation,Potency
COC(=O)N1CCC2(CC1)CN(c1cccc(-c3ccccc3)c1)C2,"inactive: 0.0735% [at 11.4 µM, scaled: untreated 0%, proteasome inhibitor 100%]",
Nc1nc(COc2ccc3ccccc3c2)cs1,inconclusive: 14.7% [signal inhibitor],
Cc1ccc(CNC(=O)C2CCN(Cc3nc(-c4ccccc4C)oc3C)CC2)cc1,inconclusive: 0.264% [signal inhibitor],
Cc1cccc(NC(=O)CSc2nnc(CNC(=O)c3cccc(C)c3)n2-c2ccccc2)c1,inconclusive: 0.817% [signal inhibitor],
COc1ccc(-c2noc(CN(C(=O)c3ccccc3Cl)C(C)C)n2)cc1,inconclusive: 0.0342% [signal inhibitor],
COc1ccc([C@@H](Nc2ccccn2)c2cc(C(C)(C)C)cc(C(C)(C)C)c2O)cc1,"inactive: 3.24% [at 11.4 µM, scaled: untreated 0%, proteasome inhibitor 100%]",
COc1ccc(OCc2nnc(SC(C)C(=O)Nc3nccs3)n2-c2ccccc2)cc1 (stereo unspecified),inconclusive: 4.49% [signal inhibitor],
Cc1ccc2nc(CSc3nnc(NC(=O)CC(C)C)s3)cc(=O)n2c1,inconclusive: 0.897% [signal inhibitor],
Cc1ccc(Cn2c(CN3CCC(C(=O)NCc4cccnc4)CC3)cc3ccccc32)cc1,inconclusive: -1.45% [signal inhibitor],
CCOc1ccc(CNC(=O)CCC(=O)N2Cc3ccccc3Oc3ncccc32)cc1,inconclusive: 2.22% [signal inhibitor],
CCOc1ccccc1NC(=O)c1ccc2c(c1)CCN2S(C)(=O)=O,inconclusive: 0.521% [signal inhibitor],
Cc1ccc(-n2c(SCC(=O)N3CCc4ccccc43)nc3c([nH]c4ccccc43)c2=O)cc1,inactive: -1.48%,
CC(C)c1nnc(NC(=O)c2cccs2)s1,,"inconclusive: 25.1 µM [signal inhibitor, partial curve]"
CCS(=O)(=O)N1CCc2cc(C(=O)Nc3cc([N+](=O)[O-])ccc3C)ccc21,inconclusive: 1.31% [signal inhibitor],
Cc1ccc(C(C)C)c(OCC(=O)Nc2ccc(N3CCN(S(C)(=O)=O)CC3)cc2)c1,inactive: 1.57%,
COc1cc([C@@H]2Oc3cc([C@H]4Oc5cc(O)cc(O)c5C(=O)[C@H]4O)ccc3O[C@H]2CO)ccc1O,"inactive: 0.696% [at 11.4 µM, scaled: untreated 0%, proteasome inhibitor 100%]",
O=C(CCn1c(=O)c2cccn2c2cccnc21)N1CCN(c2ccc(F)cc2)CC1,inactive: 0.432%,
c1csc(-c2ncc3ccccn23)c1,,"inconclusive: 31.6 µM [rising, partial curve]"
COc1ccc(C(=O)Nc2ccc3nc(SCC(=O)N4CCCC4)sc3c2)cc1,inconclusive: -0.0985% [signal inhibitor],
CCCC(=O)Nc1nnc(SCc2cc(=O)n3ccccc3n2)s1,inconclusive: -1.19% [signal inhibitor],
COc1ccccc1CCNC(=O)Cn1ccc2cc(S(=O)(=O)N3CCCCC3)ccc21,inconclusive: 2.24% [signal inhibitor],

SMILES,IkBa stabilization activation,Potency
O=C(Nc1cccc2nsnc12)c1ccc2c(c1)OCCO2,inconclusive: 15% [signal inhibitor],
CCOC(=O)c1c(NC(=O)c2ccc(S(=O)(=O)N3CCOCC3)cc2)sc2c1CCN(C)C2,inactive: -3.77%,
Cn1c(=O)c(=O)n(C)c2cc(S(=O)(=O)N3CCCC3C(=O)Nc3cccc(F)c3)ccc21 (stereo unspecified),inconclusive: 1.08% [signal inhibitor],
CCS(=O)(=O)n1nc(-c2ccco2)nc1NCc1ccc(C(C)C)cc1,inconclusive: -0.155% [signal inhibitor],
O=C(CSc1nc(-c2ccc(F)cc2)cs1)N1CCN(C(=O)c2ccco2)CC1,inconclusive: 2.67% [signal inhibitor],
CC(C)c1cc(C(=O)NCc2ccc(F)cc2)no1,inactive: 2.11%,
CCCCn1c(SCC(=O)Nc2cccc(OC)c2)nc2ccc(N3CCOCC3)cc2c1=O,inconclusive: 10.1% [signal inhibitor],
Cc1cc(C)nc(SC2=CS(=O)(=O)c3ccccc32)n1,inconclusive: 14.6% [signal activator],
COc1ccccc1NC(=O)c1sc2nc(-c3ccco3)ccc2c1N,inactive: -0.58%,
O=C(NC1CCCCC1)N(Cc1ccccc1)Cc1ccco1,inactive: 0.656%,
CC(=O)Nc1ccc(NC(=O)C(NC(=O)C2CCC(C)CC2)C(C)C)cc1 (stereo unspecified),inconclusive: 2.78% [signal inhibitor],
O=C(Nc1nccs1)c1ccc(S(=O)(=O)NCC2CCCCC2)cc1,,"inconclusive: 25.1 µM [signal inhibitor, partial curve]"
CCCc1cc(=O)n2[nH]c(SCc3ccccc3)nc2n1,,"inconclusive: 25.1 µM [signal inhibitor, partial curve]"
Cc1ccc(-n2cnc3cc(C(=O)NC4CCCCCC4)ccc32)c(C)c1,inconclusive: -3.77% [signal inhibitor],
COc1ccc(C)cc1NC(=O)C1CCC(CNS(=O)(=O)c2ccc3c(c2)CCCC(=O)N3)CC1 (stereo unspecified),inconclusive: 10.6% [signal inhibitor],
C/C=C/COC(=O)c1[nH]c2c(c1C)C(=O)CC(c1ccco1)C2 (stereo unspecified),inconclusive: 8.11% [signal activator],
CCOC(=O)C1CCCN(C(=O)C2CCN(Cc3nc(-c4ccc(Cl)cc4)oc3C)CC2)C1 (stereo unspecified),inconclusive: 1.87% [signal inhibitor],
COc1ccccc1NC(=O)N(Cc1ccccc1)c1ccccn1,inconclusive: 3.05% [signal inhibitor],
NC(=O)CSc1nc2cc3c(cc2c(=O)n1CCCCCC(=O)NCc1ccc2c(c1)OCO2)OCO3,inconclusive: -0.976% [signal inhibitor],
COc1ccc(OC)c(NC(=O)CSc2c3c(nc4cc(Cl)ccc24)CCCC3)c1,,"inconclusive: 25.1 µM [signal inhibitor, single point]"
